Assay in all cases: protein-binding microarray (PBM)
Common to all, as to settings: PBM: ~300 nM protein, 6 mM HEPES pH 7.8, 80 mM KCl, 0.5 mM EDTA, 0.5 mM EGTA, 6% glycerol, 35 ng/ul poly-dIdC, 1% milk, 1 h, room temperature; Ap Aiptasia and Nv Nematostella (sea anemones) / Co Capsaspora / Aq Amphimedon (sponge) / Dm Drosophila / Hu human; RHD is the Rel homology domain; high values mean tight binding; most listed sequences are background and not binding sites; double strand, one strand shown

Assay [1] concerns the target T1, GST-Ap-NF-kB RHD (UniProt A0A913YAJ5).
T1 sequence: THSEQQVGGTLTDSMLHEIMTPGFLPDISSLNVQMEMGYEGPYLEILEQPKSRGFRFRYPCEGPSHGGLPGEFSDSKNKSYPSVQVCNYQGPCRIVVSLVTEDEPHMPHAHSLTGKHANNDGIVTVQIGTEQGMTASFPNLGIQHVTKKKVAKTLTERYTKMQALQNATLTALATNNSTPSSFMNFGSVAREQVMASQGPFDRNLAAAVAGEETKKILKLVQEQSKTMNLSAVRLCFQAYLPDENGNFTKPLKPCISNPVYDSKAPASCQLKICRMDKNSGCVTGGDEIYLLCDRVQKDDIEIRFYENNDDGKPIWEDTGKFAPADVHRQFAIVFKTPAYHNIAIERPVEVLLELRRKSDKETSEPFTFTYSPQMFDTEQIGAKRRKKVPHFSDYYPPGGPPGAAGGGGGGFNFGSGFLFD

Assay [2] addresses T2, GST-Nv-NF-kB (Cys allele) (UniProt E5G601).
T2 sequence: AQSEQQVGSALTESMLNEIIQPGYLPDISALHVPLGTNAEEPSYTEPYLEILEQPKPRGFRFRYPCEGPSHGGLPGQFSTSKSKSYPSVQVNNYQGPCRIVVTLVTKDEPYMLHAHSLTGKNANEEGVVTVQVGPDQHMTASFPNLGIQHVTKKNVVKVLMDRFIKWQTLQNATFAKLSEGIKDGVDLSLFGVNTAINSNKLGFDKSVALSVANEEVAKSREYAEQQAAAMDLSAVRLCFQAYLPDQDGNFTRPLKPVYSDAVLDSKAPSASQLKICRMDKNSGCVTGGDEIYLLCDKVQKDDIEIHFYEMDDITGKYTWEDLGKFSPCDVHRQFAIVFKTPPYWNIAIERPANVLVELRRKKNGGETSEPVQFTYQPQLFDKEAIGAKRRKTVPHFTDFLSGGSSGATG

The target in assay [3] is T3, GST-Co-NF-kB (UniProt F1ARL5).
T3 sequence: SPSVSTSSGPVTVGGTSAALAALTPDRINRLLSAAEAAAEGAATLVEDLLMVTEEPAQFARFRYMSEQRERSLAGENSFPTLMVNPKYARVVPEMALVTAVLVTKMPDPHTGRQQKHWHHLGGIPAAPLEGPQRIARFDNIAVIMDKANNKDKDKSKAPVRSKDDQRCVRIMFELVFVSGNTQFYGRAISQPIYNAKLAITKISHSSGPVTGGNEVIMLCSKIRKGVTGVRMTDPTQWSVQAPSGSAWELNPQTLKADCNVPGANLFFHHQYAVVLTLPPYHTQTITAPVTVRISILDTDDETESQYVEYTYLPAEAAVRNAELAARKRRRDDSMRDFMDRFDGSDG

Assay [4] deals with T4, GST-Dm-Relish (UniProt Q94527).
T4 sequence: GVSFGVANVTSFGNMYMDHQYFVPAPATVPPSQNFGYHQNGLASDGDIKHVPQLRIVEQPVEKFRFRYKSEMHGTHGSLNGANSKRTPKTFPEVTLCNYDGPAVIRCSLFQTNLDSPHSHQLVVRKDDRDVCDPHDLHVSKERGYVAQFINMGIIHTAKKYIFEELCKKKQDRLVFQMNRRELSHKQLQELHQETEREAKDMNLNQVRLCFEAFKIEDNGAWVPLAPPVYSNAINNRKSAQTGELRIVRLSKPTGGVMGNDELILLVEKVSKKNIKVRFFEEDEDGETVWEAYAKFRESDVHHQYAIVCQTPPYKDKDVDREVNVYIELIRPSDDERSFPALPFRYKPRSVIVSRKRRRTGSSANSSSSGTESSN

Assay [5] deals with T5, GST-Aq-NF-kB (UniProt A9Y5G7).
T5 sequence: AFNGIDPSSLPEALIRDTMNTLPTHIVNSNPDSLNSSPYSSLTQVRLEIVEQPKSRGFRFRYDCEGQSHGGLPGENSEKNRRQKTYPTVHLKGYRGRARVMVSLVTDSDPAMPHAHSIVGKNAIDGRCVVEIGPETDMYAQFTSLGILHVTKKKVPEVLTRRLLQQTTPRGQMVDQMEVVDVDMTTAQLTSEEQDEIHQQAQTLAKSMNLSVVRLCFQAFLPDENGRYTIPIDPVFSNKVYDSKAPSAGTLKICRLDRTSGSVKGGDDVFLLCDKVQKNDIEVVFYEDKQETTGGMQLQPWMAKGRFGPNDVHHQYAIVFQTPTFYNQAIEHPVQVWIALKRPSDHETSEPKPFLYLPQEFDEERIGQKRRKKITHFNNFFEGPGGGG

The entries are a selection whose mix differs from that of the whole data set. The list includes weakly bound sequences.

15 sequences from PMC5700166 can be followed below.

With “CCGATTAACATCAGCCTGTGGACTGATGTTAATCGGGTCTTGATTCGCTTGACGCTGCTG”, the binding signal in assay [1] was -0.149 z-score; in assay [2], -0.886 z-score; in assay [3] it was -0.938 z-score; in assay [4], -0.901 z-score; in assay [5], -0.56 z-score.
In the case of “CCGATTAACATCATTTTTAAACCTGATGTTAATCGGGTCTTGATTCGCTTGACGCTGCTG”, the binding signal is -0.206 z-score in assay [1]; -0.0258 z-score in assay [2]; 0.221 z-score in assay [3]; 0.168 z-score in assay [4]; -0.151 z-score in assay [5].
The matching figures for “CCGATTAACATCAATTTAGACGGTGATGTTAATCGGGTCTTGATTCGCTTGACGCTGCTG”: 0.342 z-score, 0.00547 z-score, -0.287 z-score, 0.00734 z-score and -0.107 z-score.
Regarding “CCGATTAACATCAAAAAATCCCCTGATGTTAATCGGGTCTTGATTCGCTTGACGCTGCTG”, the binding signal was found to be 11.7 z-score in assay [1]; 11.9 z-score in assay [2]; 6.83 z-score in assay [3]; 10.7 z-score in assay [4]; 9.56 z-score in assay [5].
Take “CCGATTAACATCAAAATTCCGAATGATGTTAATCGGGTCTTGATTCGCTTGACGCTGCTG”: the binding signal was -0.253 z-score in assay [1]; -0.0774 z-score in assay [2]; 0.0689 z-score in assay [3]; 0.352 z-score in assay [4]; 0.621 z-score in assay [5].
For “CCGATTAACATCACATCCTTATTTGATGTTAATCGGGTCTTGATTCGCTTGACGCTGCTG” the same measures were -0.69 z-score, -1.26 z-score, -0.0131 z-score, -0.371 z-score and -0.333 z-score.
The matching figures for “CCGATTAACATCAAAACGTACAGTGATGTTAATCGGGTCTTGATTCGCTTGACGCTGCTG”: 0.094 z-score, -0.231 z-score, 0.137 z-score, 0.698 z-score and -0.246 z-score.
In the case of “CCGATTAACATCATCGAACGCCCTGATGTTAATCGGGTCTTGATTCGCTTGACGCTGCTG”, the binding signal was -0.312 z-score in assay [1]; -0.444 z-score in assay [2]; -0.282 z-score in assay [3]; -0.717 z-score in assay [4]; -0.248 z-score in assay [5].
For “CCGATTAACATCATCAACACATTTGATGTTAATCGGGTCTTGATTCGCTTGACGCTGCTG” the same measures were -0.3 z-score, -0.208 z-score, 0.124 z-score, -0.0494 z-score and -0.32 z-score.
The matching figures for “CCGATTAACATCAACCAGACAGTTGATGTTAATCGGGTCTTGATTCGCTTGACGCTGCTG”: -0.336 z-score, -0.467 z-score, -0.318 z-score, -0.86 z-score and -0.5 z-score.
Consider “CCGATTAACATCACGAACTTTCCTGATGTTAATCGGGTCTTGATTCGCTTGACGCTGCTG”, for which the binding signal in assay [1] was -0.351 z-score; in assay [2], -0.669 z-score; in assay [3], -0.215 z-score; in assay [4] it was -0.0831 z-score; in assay [5], 0.75 z-score.
Consider “CCGATTAACATCATTAAGAAAGCTGATGTTAATCGGGTCTTGATTCGCTTGACGCTGCTG”, for which the binding signal in assay [1] is -0.11 z-score; in assay [2], -0.151 z-score; in assay [3], 0.366 z-score; in assay [4], -0.505 z-score; in assay [5], -0.412 z-score.
The matching figures for “CCGATTAACATCACTGGAAATTCTGATGTTAATCGGGTCTTGATTCGCTTGACGCTGCTG”: 0.364 z-score, -0.0237 z-score, 0.746 z-score, 1.59 z-score and 0.983 z-score.
For the sequence “CCGATTAACATCAGCGCGGAACCTGATGTTAATCGGGTCTTGATTCGCTTGACGCTGCTG”, the binding signal is -0.0723 z-score in assay [1]; -1.36 z-score in assay [2]; -0.572 z-score in assay [3]; -0.546 z-score in assay [4]; -0.515 z-score in assay [5].
The matching figures for “CCGATTAACATCAACTTCTTGGATGATGTTAATCGGGTCTTGATTCGCTTGACGCTGCTG”: -0.421 z-score, 0.0331 z-score, 0.131 z-score, -0.29 z-score and -0.382 z-score.
